# In all, about 310,000 compounds went through this assay and about 2,200 (0.71%) showed an effect of 50% or more. The effect is printed as a negative number. The list shows a part of the results.
# Target: human ether-à-go-go-related gene (hERG) potassium channel (human, UniProt Q12809)
# Assay: primary screen, population patch clamp on CHO cells stably expressing hERG
# human ether-à-go-go-related gene (hERG) potassium channel, sequence (Q12809 whole entry, looked up): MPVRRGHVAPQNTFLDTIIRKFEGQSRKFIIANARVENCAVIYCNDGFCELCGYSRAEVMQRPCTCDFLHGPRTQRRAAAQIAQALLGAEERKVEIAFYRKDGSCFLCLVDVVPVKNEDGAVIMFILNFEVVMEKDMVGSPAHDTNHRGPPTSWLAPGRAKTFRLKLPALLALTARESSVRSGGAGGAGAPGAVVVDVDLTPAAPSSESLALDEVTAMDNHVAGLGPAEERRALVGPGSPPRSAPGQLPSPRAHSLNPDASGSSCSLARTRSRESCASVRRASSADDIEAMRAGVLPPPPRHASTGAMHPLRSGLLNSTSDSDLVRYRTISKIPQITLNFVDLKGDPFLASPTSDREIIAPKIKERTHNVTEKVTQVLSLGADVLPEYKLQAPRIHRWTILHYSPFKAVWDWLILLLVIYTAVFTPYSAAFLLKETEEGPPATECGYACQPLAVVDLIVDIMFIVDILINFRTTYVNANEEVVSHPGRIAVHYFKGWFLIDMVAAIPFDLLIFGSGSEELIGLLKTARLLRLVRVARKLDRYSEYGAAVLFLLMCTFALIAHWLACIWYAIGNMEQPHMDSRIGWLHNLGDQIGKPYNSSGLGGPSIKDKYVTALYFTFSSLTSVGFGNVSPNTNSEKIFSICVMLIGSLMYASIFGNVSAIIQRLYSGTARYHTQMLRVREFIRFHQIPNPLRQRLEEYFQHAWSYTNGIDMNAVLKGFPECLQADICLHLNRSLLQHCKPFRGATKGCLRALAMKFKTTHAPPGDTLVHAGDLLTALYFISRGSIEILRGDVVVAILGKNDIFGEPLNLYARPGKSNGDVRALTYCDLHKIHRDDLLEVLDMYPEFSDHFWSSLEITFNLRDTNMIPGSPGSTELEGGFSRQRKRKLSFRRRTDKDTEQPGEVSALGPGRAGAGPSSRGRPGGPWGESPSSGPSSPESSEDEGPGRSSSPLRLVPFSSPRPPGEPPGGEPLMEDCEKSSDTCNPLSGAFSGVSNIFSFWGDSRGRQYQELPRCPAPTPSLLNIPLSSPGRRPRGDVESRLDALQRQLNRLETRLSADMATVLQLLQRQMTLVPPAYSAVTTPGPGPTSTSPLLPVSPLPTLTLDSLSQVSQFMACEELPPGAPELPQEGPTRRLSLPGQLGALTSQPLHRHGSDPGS
row,Compound,"hERG current change (%, negative = inhibition) at 1uM [%]"
1,Cc1cc(O)cc2c1C(=O)/C(=C/c1ccco1)O2,20
2,CCc1ccc(N2CCN(C(=O)N3CCOCC3)CC2)cc1,20.8
3,N#CCCN1CCN(C(=O)c2c(N)no[n+]2[O-])CC1,9.05
4,COc1ccc(C(=O)N/C(=C\c2ccccc2)C(=O)Nc2ccc(C(=O)NCC(=O)O)cc2)cc1,7.82
5,CCC(=O)NC(c1ccccc1OC)c1ccc2cccnc2c1O (centres unmarked),4.64
6,COc1ccc(N2CCN(C(=O)CSc3nnc4c(C)cc5ccc(C)c(C)c5n34)CC2)cc1,4.93
7,O=S(=O)(NCCc1csc(-c2ccccc2)n1)c1ccc2c(c1)OCCO2,10
8,Cc1cc(OC(C)C(=O)NCC2CCC(C(=O)O)CC2)c2c3c(c(=O)oc2c1)CCC3 (centres unmarked),5.87
9,Cc1c(Br)c([N+](=O)[O-])nn1CC(=O)NCC1CCCO1 (centres unmarked),20.8
10,COc1cccc(C2CC(c3cccs3)=NN2C(=O)c2ccco2)c1O (centres unmarked),10.2
11,COc1cc(/C=C/C(=O)OCC(=O)Nc2ccc(S(=O)(=O)N3CCCC3)cc2)ccc1O,1.69
12,COc1ccccc1NC(=O)CN1C(=O)C(C)Oc2ccccc21 (centres unmarked),0.703
13,CC1(C)Oc2ccc3ccc(=O)oc3c2[C@@H](O)[C@@H]1O,16.3
14,O=C(O)C1C2C=CC(C2)C1C(=O)NCc1cccs1 (centres unmarked),12.4
15,COc1ccc(OC)c2[nH]c(=O)c(CCNC(=O)C(C)(C)C)cc12,12
16,COc1ccc(CN2C(=O)CC(Cc3cc(C)cc(C)c3)C2=O)cc1OC (centres unmarked),1.48
17,COc1ccccc1CNC(=O)COC(=O)CNS(=O)(=O)c1ccc(NC(C)=O)cc1,15.2
18,Cc1cc(NC(=O)COc2cccnc2[N+](=O)[O-])no1,10.7
19,Cc1ccc(CNC(=O)CCCC(=O)Nc2cc(C)on2)cc1,11.7
20,Cc1c(NC(=O)CSc2ncnc3ccccc23)c(=O)n(-c2ccccc2)n1C,14.7
21,CC(=O)N(C)CC#CCN1CCCC(CO)C1 (centres unmarked),7.08
22,O=C1C2CC=CCC2C(=O)N1c1ccc(N2CCN(c3ccccn3)CC2)c([N+](=O)[O-])c1 (centres unmarked),14.2

row,Compound,"hERG current change (%, negative = inhibition) at 1uM [%]"
1,Cc1ccc2sc(N(CCCN(C)C)C(=O)c3nc4ccccc4s3)nc2c1C.Cl,4.84
2,CCN(CC)C(=O)CSC(=Nc1ccccc1F)NC#N,5.87
3,CC(Oc1cccc(Cl)c1)C(=O)Nc1cc(Cl)ccc1N1CCOCC1 (centres unmarked),6.59
4,CNC(=O)COc1ccc(C=O)cc1OC,8.12
5,N#Cc1ccc(-c2ccc(Cl)cc2)nc1SCC(=O)c1cccc(Cl)c1,24.1
6,Nc1ncnc2c1cnn2C1CCCCC1,13.2
7,COC(=O)c1sc(NC(=O)CSc2nc3nc(C)cc(C)n3n2)c(C(=O)OC)c1C,-8.79
8,O=C(N/N=C1\CCCc2c1[nH]c1ccc([N+](=O)[O-])cc21)c1ccncc1,-1.41
9,Oc1cccc(/C=N/Nc2nn3cnnc3c3ccccc23)c1,10.1
10,COc1ccccc1N(CC(=O)NC1CCCC1)C(=O)c1cnn(C(C)C)c1,8.33
11,COc1ccc2occ(C(=O)c3ccc(N=C(C)N(C)C)cc3)c2c1,-25.9
12,O=C(CN1C(=O)S/C(=C/C=C/c2ccccc2)C1=O)Nc1ccc(C(=O)O)cc1,9.91
13,Cc1ccc(-n2c(CCc3nc4ccccc4[nH]3)n[nH]c2=S)cc1,12.7
14,Cc1ccc(CNC(=O)CC(C)S(=O)(=O)c2cc3c(cc2C)NC(=O)CO3)cc1 (centres unmarked),-3.74
15,CCOC(=O)C1CCCN(C2=NC(=O)/C(=C/c3ccc(OC)cc3)S2)C1 (centres unmarked),9.92
16,CC(=O)c1ccc(NC(=O)C(C)Sc2ccccn2)cc1 (centres unmarked),9.91
17,O=C(COC(=O)c1ccc(C(F)(F)F)cc1)NC(=O)NC1CCCC1,12.8
18,CC(=O)Nc1cccc2c1C(=O)NC2=O,7.84
19,COc1ccc(N(CC(=O)Nc2ccc3c(c2)OCO3)S(=O)(=O)c2ccc(F)cc2)cc1,16.6
20,CC(=O)c1ccc(S(=O)(=O)Nc2cc3c(cc2C(C)=O)OCO3)cc1,21.7
21,O=c1cc(-c2cccc(Cl)c2)oc2cccc(O)c12,4.53
22,CC#CCN1c2ccccc2[C@]23C[C@@H](C(=O)OC)N=C2NC(C(=O)OC)=C(C(=O)OC)[C@H]13,5.41

row,Compound,"hERG current change (%, negative = inhibition) at 1uM [%]"
1,Cc1cccc(N=Nc2cn[nH]c2-c2ccco2)c1,7.83
2,CCN1CCN(c2ncnc3c2cnn3-c2ccc(C)cc2C)CC1,5.51
3,CCOCc1nnc(NC(=O)c2c(OC)cccc2OC)s1,16.4
4,Fc1ccc(CCNC(=S)Nc2ccc(F)cc2)cc1,6.26
5,C/C(=N/NC(=O)c1cccs1)c1cccc(NC(=O)C2CC2)c1,8.65
6,Cc1ccc(C(=O)CCC(=O)Nc2cccnc2)cc1C,14.3
7,CCC(=O)N1CCCc2cc(S(=O)(=O)N3CCN(c4ccccn4)CC3)ccc21,0.367
8,O=C(NCc1ccco1)c1cc(-c2ccccc2)on1,10.7
9,O=C(CCC(=O)c1ccc(Cl)cc1)NCc1ccccc1,47.3
10,S=C(NCc1ccccc1)NCc1cccc(Cl)c1,12.3
11,CN(C)C(=O)CSc1nnc(CCNC(=O)OC(C)(C)C)o1,-7.2
12,O=C(O)c1cccc(S(=O)(=O)N2CCCC(c3nc4c(nnn4Cc4ccccc4Cl)c(=O)[nH]3)C2)c1 (centres unmarked),13.3
13,Cc1ccc(S(=O)(=O)N(Cc2cccc(Cl)c2)C(=O)N2CCN(C)CC2)cc1,9.89
14,Brc1cccc(OCCN2CCOCC2)c1.O=C(O)C(=O)O,15.4
15,Cc1cccc(C2c3[nH]c4ccccc4c3CCN2C(=O)c2cc(CC(C)C)[nH]c(=O)n2)n1 (centres unmarked),1.82
16,O=C(c1ccc(Cl)c(S(=O)(=O)NCc2ccco2)c1)N1CCN(c2ccc(F)cc2)CC1,-14
17,Nc1c(Cl)c(Cl)nc(C(=O)OCC(=O)N2CCCC2=O)c1Cl,4.38
18,COc1ccc(C2CC(=O)c3c(ccc4ccccc34)N2)cc1OC (centres unmarked),2.1
19,COc1ccc(CNC(=O)C(C#N)c2nc3ccccc3nc2N2CCCC2)cc1 (centres unmarked),10.5
20,CCc1nnc(NC(=O)C(NC(=O)c2ccccc2Cl)C(C)C)s1 (centres unmarked),8.17
21,COC(=O)CN1C(=O)[C@H]2[C@@H](C3CC3)N3C(=O)CN(Cc4ccccn4)C(=O)[C@@]3(Cc3ccccc3)[C@H]2C1=O,3.1
22,Cc1ccc(C)c(N2CCN(C(=O)C34CC5CC(C3)CC(n3nnc(C)n3)(C5)C4)CC2)c1,3.18

row,Compound,"hERG current change (%, negative = inhibition) at 1uM [%]"
1,Cc1cc(C)cc(NC(=O)Cn2nnc(C(=O)NCc3ccccc3Cl)c2N)c1,13.6
2,CCOC(=O)c1sc2nc3c(SCC(=O)O)cc(C(=O)c4cc(F)ccc4O)cn3c(=O)c2c1C,8.65
3,CC(C)(C)Nc1nc(Oc2ccc(=O)n(-c3ccccc3)n2)nc(N2CCOCC2)n1,-8.49
4,CCCn1c(SCC(=O)Nc2nc3c(s2)CCCC3)nc2c1c(=O)n(C)c(=O)n2C,0.843
5,COCCNCCOc1ccc(C)cc1[N+](=O)[O-].O=C(O)C(=O)O,-8.77
6,CCCCn1c(N)c(N(CCOC)C(=O)COC(=O)C(C)(C)Oc2ccc(Cl)cc2)c(=O)[nH]c1=O,4.64
7,O=C(CNS(=O)(=O)N1CCOCC1)N/N=C/c1cccnc1,8.17
8,CCN(CC)C(=O)c1ccc(NS(=O)(=O)c2ccc(/C=C/C(=O)O)cc2)cc1,12.9
9,C[N+]1(C)C2CC(OC(=O)C(CO)c3ccccc3)CC1C1OC12.[Br-] (centres unmarked),9.8
10,Cc1noc(C)c1CSCC(=O)N1CCN(c2ccc(F)cc2)CC1,-17.9
11,O=C(Nc1ccccc1)c1ccccc1N=Cc1ccccc1O,13.4
12,Cc1nn(C)c(C)c1S(=O)(=O)N(CC(=O)NCCCOC(C)C)c1ccc(C(C)C)cc1,-41
13,C=C(C)CCC(C)N1CCC(n2nccc2NC(=O)CCCc2ccccc2)CC1 (centres unmarked),-16.2
14,Cc1ccc(-c2noc(=O)n2CC(=O)Nc2ccc(S(=O)(=O)NC3CC3)cc2)cc1,10.4
15,CCOC(=O)N1CCN(C(=S)Nc2cc(OC)c(OC)cc2C(=O)OC)CC1,12.3
16,COc1ccc(/C=C/C(=O)NCC(=O)N=Nc2c(O)[nH]c3ccc([N+](=O)[O-])cc23)cc1,14.4
17,Cc1csc(NC(=O)C2C3C=CC(O3)C2C(=O)O)n1 (centres unmarked),14.6
18,CCn1cc(CN2CCC(C(=O)Nc3cccc(-c4cccc(OC)c4)c3)CC2)cn1,-24.5
19,CN(C)c1ccnc2sc(C(=O)c3ccc(Br)cc3)c(N)c12,9.2
20,COC(=O)[C@]1(Cc2ccccc2)N[C@H](c2ccc(-c3ccc(OC)cc3)cc2)[C@@H]2C(=O)N(C)C(=O)[C@@H]21.O=C(O)C(F)(F)F,10.6

# — PMC4336329 (PLoS ONE, 2015)
